{"source": "PubChem BioAssay (NCATS)", "key": {"[1]": {"assay": "Viability qHTS for spleen associated tyrosine kinase inhibitor (SYKi) naive MV4-11 cells (AID 1963823); further: nearly all actives have a fitted effect of over 40% in size", "conditions": "MV4-11 AML viability, CellTiter-Glo luminescence, 72 h; viability (% of control): at 45 µM (top of the series)", "in_short": "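In this viability screen, compounds acted on SYK inhibitor naive MV4-11 cells for three days (72 hr, 37 C). Remaining viable cells were measured by CellTiter-Glo luminescence following a 10 min room-temperature development.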"}, "[2]": {"assay": "Viability qHTS for spleen associated tyrosine kinase inhibitor (SYKi) drug resistant MV4-11 cells (AID 1963824); further: nearly all actives have a fitted effect of over 35% in size", "conditions": "SYKi-resistant MV4-11 viability, CellTiter-Glo, 72 h; series mostly up to 45 µM", "in_short": "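SYK-inhibitor-resistant MV4-11 AML cells were seeded at 500 per well onto compound and cultured 72 hours (37 °C, 5% CO2). CellTiter-Glo was then added, and after 10 min at room temperature, luminescence gave viability.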"}, "[3]": {"assay": "Cellular viability qHTS for adrenocortical cancer (ACC) cell line SW-13 (AID 1963989); further: nearly all actives have a fitted effect of over 65% in size;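 on activity (max response): cells grown in serum-free medium with ITS supplement; on the % scale 0 is the no-effect control and ±100 the full control effect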", "conditions": "SW-13 ACC cells viability, CellTiter-Glo, 48 h; activity (max response): stronger effect = lower value", "in_short": "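Luminescent ATP read-out (CellTiter-Glo, 20 min at room temperature) measured metabolically competent SW-13 cells after 48 h compound treatment. Final concentrations spanned up to 46 uM; bortezomib served as positive control.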"}, "[4]": {"assay": "Cellular viability qHTS for adrenocortical cancer (ACC) cell line NCI-H295R (AID 1963990); further: nearly all actives have a fitted effect of over 60% in size;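 on activity change, negative = viability loss: 0% = DMSO only wells and -100% = full killing with cytotoxic reference compound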", "conditions": "CellTiter-Glo ATP luminescence, 48 h; activity change, negative = viability loss: at 46.1 µM (top of the series)", "in_short": "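IC50 and maximal efficacy derive from four-parameter logistic modelling of titration curves, with reads scaled between DMSO-only wells (0%) and doxorubicin hydrochloride (100% inhibition). Compounds spanned up to 46 uM over 48 h.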"}}, "note": "Several values for one entry are separate records, joined by “and”; a condition that tells them apart may be missing. Equal values may be shown once. Inconclusive means that the source gave no clear call. Such entries were picked first, then a sample of the others. A potency beside an inconclusive call is a rough fit, not a confirmed value. Activity calls are given as the source filed them. The call rests on the fitted dose curve; in most records, active means well fitted curve in the direction sought with a large enough effect; inconclusive means small, poorly fitted or top-dose-only effect, or another doubt; inactive means no such curve, though single readings can be large; an effect the other way counts as inactive or inconclusive. Potency means the concentration at half of the fitted maximal effect; tags describe the fitted curve by direction and shape."}
{"smiles": "Cc1ccc(C(=O)C(C)CN2CCCCC2)cc1", "note": "(stereo not drawn)", "values": [{"measurement": "Potency", "setting": "[1]", "value": "inconclusive: 33.5 µM [cytotoxic, single point] and inconclusive: 25.9 µM [cytotoxic, partial curve]"}, {"measurement": "Potency", "setting": "[2]", "value": "inconclusive: 33.5 µM [cytotoxic, partial curve, poor fit] and inconclusive: 20.6 µM [cytotoxic, single point]"}, {"measurement": "activity (max response)", "setting": "[3]", "value": "inactive: -5.23%"}, {"measurement": "Potency", "setting": "[4]", "value": "inactive"}]}
{"smiles": "CCC[C@H](N[C@@H](C)C(=O)N1[C@H](C(=O)O)C[C@@H]2CCCC[C@@H]21)C(=O)OCC", "values": [{"measurement": "Potency", "setting": "[1]", "value": "inconclusive: 33.5 µM [cytotoxic, single point]"}, {"measurement": "Potency", "setting": "[2]", "value": "inconclusive: 33.5 µM [cytotoxic, single point]"}, {"measurement": "Potency", "setting": "[3]", "value": "inconclusive: 18.4 µM [cytotoxic, single point]"}, {"measurement": "Potency", "setting": "[4]", "value": "inconclusive: 23.1 µM [cytotoxic, partial curve, poor fit]"}]}
{"smiles": "O=C(N/N=C/c1ccccc1O)c1ccncc1", "values": [{"measurement": "Potency", "setting": "[1]", "value": "active: 0.944 µM"}, {"measurement": "Potency", "setting": "[2]", "value": "active: 0.75 µM"}, {"measurement": "Potency", "setting": "[3]", "value": "inconclusive: 20.6 µM [cytotoxic, single point]"}, {"measurement": "Potency", "setting": "[4]", "value": "inconclusive: 29.1 µM [cytotoxic, single point]"}]}
{"smiles": "O=S(c1cc(Cl)cc(Cl)c1O)c1cc(Cl)cc(Cl)c1O", "values": [{"measurement": "Potency", "setting": "[1]", "value": "inactive"}, {"measurement": "Potency", "setting": "[2]", "value": "inactive"}, {"measurement": "Potency", "setting": "[3]", "value": "inconclusive: 23.1 µM [cytotoxic, single point]"}, {"measurement": "Potency", "setting": "[4]", "value": "inconclusive: 29.1 µM [cytotoxic, single point]"}]}
{"smiles": "O=C(O)C(=O)Nc1cccc(-c2nn[nH]n2)c1", "values": [{"measurement": "Potency", "setting": "[1]", "value": "inactive"}, {"measurement": "Potency", "setting": "[2]", "value": "inactive"}, {"measurement": "activity (max response)", "setting": "[3]", "value": "inactive: 14.5% and inactive: 11%"}, {"measurement": "Potency", "setting": "[4]", "value": "inactive"}]}
{"smiles": "O=C(CCCN1CCC(O)(c2cccc(C(F)(F)F)c2)CC1)c1ccc(F)cc1", "values": [{"measurement": "Potency", "setting": "[1]", "value": "inconclusive: 16.8 µM [cytotoxic, partial curve]"}, {"measurement": "Potency", "setting": "[2]", "value": "inconclusive: 21.1 µM [cytotoxic, single point]"}, {"measurement": "Potency", "setting": "[3]", "value": "inconclusive: 20.6 µM [cytotoxic, single point]"}, {"measurement": "Potency", "setting": "[4]", "value": "inconclusive: 20.6 µM [cytotoxic, single point]"}]}
{"smiles": "O=C1OC2(c3ccccc31)c1cc(I)c(O)c(I)c1Oc1c2cc(I)c(O)c1I", "values": [{"measurement": "Potency", "setting": "[1]", "value": "inactive"}, {"measurement": "Potency", "setting": "[2]", "value": "inconclusive: 33.5 µM [cytotoxic, partial curve, poor fit]"}, {"measurement": "Potency", "setting": "[3]", "value": "inconclusive: 4.61 µM [cytotoxic, partial curve]"}, {"measurement": "Potency", "setting": "[4]", "value": "inactive"}]}
{"smiles": "CO[C@H]1C[C@@H]2CC[C@@H](C)[C@@](O)(O2)C(=O)C(=O)N2CCCC[C@H]2C(=O)O[C@H]([C@H](C)C[C@@H]2CC[C@@H](OC(=O)C(C)(CO)CO)[C@H](OC)C2)CC(=O)[C@H](C)/C=C(\\C)[C@@H](O)[C@@H](OC)C(=O)[C@H](C)C[C@H](C)/C=C/C=C/C=C/1C", "values": [{"measurement": "Potency", "setting": "[1]", "value": "inconclusive: 18.4 nM [cytotoxic, full curve] and inconclusive: 9.1 µM [cytotoxic, partial curve, poor fit]"}, {"measurement": "Potency", "setting": "[2]", "value": "inconclusive: 5.8 µM [cytotoxic, partial curve, poor fit] and active: 10.2 µM"}, {"measurement": "Potency", "setting": "[3]", "value": "inconclusive: 12.7 µM [cytotoxic, single point]"}, {"measurement": "Potency", "setting": "[4]", "value": "inconclusive: 0.0451 µM [cytotoxic, full curve, poor fit]"}]}
{"smiles": "N=C1N=C(N)c2cc3ccccc3cc21", "values": [{"measurement": "Potency", "setting": "[1]", "value": "inconclusive: 19.3 µM [cytotoxic, partial curve]"}, {"measurement": "Potency", "setting": "[2]", "value": "active: 38.6 µM"}, {"measurement": "Potency", "setting": "[3]", "value": "inconclusive: 63.1 µM [cytotoxic, single point]"}, {"measurement": "Potency", "setting": "[4]", "value": "inconclusive: 63.1 µM [cytotoxic, single point]"}]}
{"smiles": "COC(=O)N(CC(=O)O)Cc1cccc(OCc2nc(-c3ccc(Cl)cc3)oc2C)c1", "values": [{"measurement": "Potency", "setting": "[1]", "value": "inconclusive: 16.6 µM [cytotoxic, partial curve]"}, {"measurement": "Potency", "setting": "[2]", "value": "inconclusive: 16.6 µM [cytotoxic, partial curve]"}, {"measurement": "Potency", "setting": "[3]", "value": "inconclusive: 22.4 µM [cytotoxic, single point]"}, {"measurement": "Potency", "setting": "[4]", "value": "inactive"}]}
{"smiles": "O=C(Nc1ccc(Cl)c(Cl)c1)C1CC1", "values": [{"measurement": "Potency", "setting": "[1]", "value": "inconclusive: 15 µM [cytotoxic, partial curve]"}, {"measurement": "Potency", "setting": "[2]", "value": "inconclusive: 16.8 µM [cytotoxic, partial curve]"}, {"measurement": "Potency", "setting": "[3]", "value": "inconclusive: 20.6 µM [cytotoxic, single point]"}, {"measurement": "Potency", "setting": "[4]", "value": "inconclusive: 29.1 µM [cytotoxic, single point]"}]}
{"smiles": "NS(=O)(=O)Oc1ccc2c3c(c(=O)oc2c1)CCCCC3", "values": [{"measurement": "Potency", "setting": "[1]", "value": "inconclusive: 37.2 µM [cytotoxic, single point]"}, {"measurement": "Potency", "setting": "[2]", "value": "inconclusive: 18.6 µM [cytotoxic, partial curve]"}, {"measurement": "Potency", "setting": "[3]", "value": "inconclusive: 25.1 µM [cytotoxic, single point]"}, {"measurement": "Potency", "setting": "[4]", "value": "inactive"}]}
